Screen size: about 350,000 compounds; about 260 (0.074%) were called active. Inconclusive means that the source gave no clear call. Such entries were picked first, then a sample of the others. Calls come from the whole dose curve; as a rule, active = well fitted inhibition curve with a large enough effect; inconclusive = small, poorly fitted or top-dose-only effect; inactive = no such curve, though single readings can be large or run the other way. A potency beside an inconclusive call is a rough fit, not a confirmed value.
biological target: Ferritin light chain (Equus caballus) (UniProt P02791); assay: qHTS Assay for Identification of Novel General Anesthetics; settings: apoferritin/1-aminoanthracene competitive binding, fluorescence; series mostly up to 77.5 µM; note: nearly all actives have a fitted effect of over 20% in size
Sequence of UniProt P02791 (P02791 whole entry, looked up): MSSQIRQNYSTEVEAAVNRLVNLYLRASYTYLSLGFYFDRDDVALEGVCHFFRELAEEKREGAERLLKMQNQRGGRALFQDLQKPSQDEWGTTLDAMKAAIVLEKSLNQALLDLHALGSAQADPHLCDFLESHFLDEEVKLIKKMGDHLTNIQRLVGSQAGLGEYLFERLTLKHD
In short: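 Concentration-response curves derived by four-parameter Hill fitting of normalized fluorescence, where compounds displaced 1-AMA from 10 uM horse apoferritin following a brief 10 min room-temperature incubation; propofol titration acted as positive control.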
Potency is the fitted concentration of half-maximal effect; tags give direction and shape of the fitted curve.

| SMILES | Potency |
| --- | --- |
| O=C(COC(=O)c1cccs1)c1ccccc1 | inconclusive: 25.1 µM [inhibitor, partial curve] |
| CC(=O)Nc1ccc(NC2=C(Cl)C(=O)c3ccccc3C2=O)cc1 | inactive |
| Cc1ccc(C(=O)Nc2nnc(CC(=O)N/N=C/c3ccncc3)s2)cc1 | inconclusive: 39.8 µM [inhibitor, single point] |
| CCc1nn(CC(=O)Nc2ccc(Br)c(C)c2)c(=N)s1 | inconclusive: 20 µM [inhibitor, partial curve] |
| CCC1CCCCN1C(=O)C1CC(c2cc(Cl)c(OC)cc2OC)=NO1 (stereo unspecified) | inconclusive: 56.2 µM [inhibitor, single point] |
| O=C(COC(=O)c1ccc(Cl)nc1)Nc1ccc(S(=O)(=O)N2CCCC2)cc1 | inconclusive: 35.5 µM [inhibitor, single point] |
| CCc1cc(C(=O)NCc2ccccc2)no1 | inconclusive: 28.2 µM [inhibitor, partial curve] |
| COc1ccc(C2c3[nH]c4ccccc4c3CCN2C(=O)c2ccccc2C(C)=O)c(F)c1 (stereo unspecified) | inconclusive: 20 µM [inhibitor, partial curve] |
| Cc1ccc(-n2nc3c(N4CCC(C(=O)N5CCCCCC5)CC4)nnc(C)c3c2C)cc1 | inconclusive: 28.2 µM [inhibitor, partial curve] |
| CC(=O)Nc1ccc(Nc2nc(C)c([N+](=O)[O-])c(Nc3ccccc3)n2)cc1 | inconclusive: 31.6 µM [inhibitor, partial curve] |
| Cc1nnc(NC(=O)c2nc(SCc3ccccc3F)ncc2Cl)s1 | inconclusive: 7.94 µM [inhibitor, single point] |
| Cc1ccc(C(OCC(O)CNC(CO)C(O)c2ccc([N+](=O)[O-])cc2)c2ccccc2)cc1 (stereo unspecified) | inconclusive: 7.08 µM [inhibitor, partial curve] |
| Cc1cccc(OCCC(=O)Nc2ccc(S(=O)(=O)N3CCCC3)cc2)c1 | inconclusive: 3.98 µM [inhibitor, partial curve, poor fit] |
| CCNC(=O)n1nccc1C(C)Oc1cccc(C(F)(F)F)c1 (stereo unspecified) | inconclusive: 28.2 µM [inhibitor, single point] |
| Cc1cnc(NC(=O)C2(c3ccccc3)CC2)s1 | inconclusive: 31.6 µM [inhibitor, single point] |
| CCOc1cc(C(=O)OCC(=O)NCc2ccco2)cc(OCC)c1OCC | inconclusive: 39.8 µM [inhibitor, single point] |
| Fc1ccc(OCCOCCOc2cccc3[nH]ccc23)cc1 | inconclusive: 15.8 µM [inhibitor, partial curve] |
| O=C(Nc1nnc2n1CCS2)c1ccco1 | inactive |
| NC(=O)C1CCN(C(=O)CN2C(=O)c3ccccc3S2(=O)=O)CC1 | inactive |
| CCc1cccc(NC(=O)Cn2nc(-c3cc(C)ccc3C)ccc2=O)c1 | inconclusive: 10 µM [inhibitor, partial curve] |
| O=c1c(Cl)c(Cl)cnn1Cc1nnc(-c2ccc(Cl)cc2)o1 | inconclusive: 14.1 µM [inhibitor, partial curve] |
| COc1cc(NC(=O)c2cc3c(=O)n(Cc4cccs4)ccc3nc2C)cc(OC)c1OC | inconclusive: 17.8 µM [inhibitor, partial curve, poor fit] |

| SMILES | Potency |
| --- | --- |
| CC(Sc1nc(=O)cc(N)n1CCc1ccccc1)C(=O)Nc1ccccc1C#N (stereo unspecified) | inactive |
| CC(=O)C(C)Oc1ccc(Cc2ncc(C(F)(F)F)cc2Cl)cc1 (stereo unspecified) | inconclusive: 28.2 µM [inhibitor, partial curve] |
| CCNC(=S)SCCOc1ccc(C)cc1 | inconclusive: 39.8 µM [inhibitor, single point] |
| COc1ccc(C(=O)Nc2ccc(C3(C#N)CCCC3)cc2)cc1OC | inconclusive: 28.2 µM [inhibitor, partial curve] |
| CCOc1ccc(-c2ccc(SCc3ccccn3)nn2)cc1 | inactive |
| CCCN(c1ccc(OCC)cc1)S(=O)(=O)c1ccc2c(c1)NC(=O)CO2 | inconclusive: 12.6 µM [inhibitor, partial curve] |
| CN(Cc1ccccc1)c1ccc(C(CC(N)=O)NC(=O)c2ccccc2)cc1[N+](=O)[O-] (stereo unspecified) | inconclusive: 25.1 µM [inhibitor, partial curve] |
| CCCCn1cc(S(=O)(=O)c2cccc(C)c2)c(=O)c2cc(F)c(N3CCOCC3)cc21 | inconclusive: 12.6 µM [inhibitor, partial curve] |
| CN1CCN(c2ccc(NC(=O)c3ccc(-c4cccc([N+](=O)[O-])c4)o3)cc2)CC1 | inconclusive: 8.91 µM [inhibitor, partial curve] |
| CN(C)CCn1c2c(c(SCC(=O)Nc3ccc(F)cc3F)nc1=O)CCC2 | inactive |
| COc1ccc(C2CC(c3ccc4ccccc4c3)=NN2C(=O)CN2CCC(C(N)=O)CC2)cc1 (stereo unspecified) | inconclusive: 17.8 µM [inhibitor, partial curve] |
| Cc1ccc(C)c(Cn2nc(-c3cc(C)ccc3C)ccc2=O)c1 | inconclusive: 31.6 µM [inhibitor, partial curve] |
| CCN1CCN(C(=O)c2cccc(OC3CCN(S(=O)(=O)N(C)C)CC3)c2)CC1 | inactive |
| O=[N+]([O-])c1ccc(C(c2sc3nc(-c4ccco4)nn3c2O)N2CCN(c3cccc(Cl)c3)CC2)cc1 (stereo unspecified) | inactive |
| CN(C)S(=O)(=O)c1cccc(NC(=O)COC(=O)/C=C/c2ccc(Br)o2)c1 | inactive |
| O=C(O)C1C2C=CC(C2)C1C(=O)NCc1ccc2c(c1)OCO2 (stereo unspecified) | inconclusive: 31.6 µM [inhibitor, partial curve] |
| O=C(Nc1ccon1)c1csc2c1CCCC2 | inconclusive: 39.8 µM [inhibitor, partial curve] |
| CCCn1c(NCc2ccc(N(CC)CC)cc2)nc2ccccc21 | inconclusive: 3.16 µM [inhibitor, full curve] |
| CCCN(CCC)C(=O)Cn1c(=O)n(-c2ccc(OC)cc2)c(=O)c2ccc(C(=O)NCc3ccc(C)cc3)cc21 | inconclusive: 7.94 µM [inhibitor, full curve, poor fit] |
| CC1CC(C)CN(C(=O)CN2CCN(Cc3ccc(Cl)cc3)C2=O)C1 (stereo unspecified) | inconclusive: 35.5 µM [inhibitor, partial curve] |
| COCc1cc(C)n(CC(=O)NC(C)c2ccccc2)c(=O)c1C#N (stereo unspecified) | inactive |
| NC(=O)c1ccc(Br)c(S(=O)(=O)N2CCCCC2)c1 | inconclusive: 35.5 µM [inhibitor, single point] |

| SMILES | Potency |
| --- | --- |
| COc1ccc2nc(N3CCC(C)CC3)c(C#N)cc2c1 | inactive |
| COc1ccc(Br)cc1CNc1ccc(O)cc1 | inactive |
| Nc1nc(SCc2ccc(Cl)cc2Cl)ns1 | inconclusive: 35.5 µM [inhibitor, single point] |
| CCOC(=O)C1(Cc2ccccc2)CCCN(Cc2cccc(C(C)=O)c2)C1 (stereo unspecified) | inconclusive: 31.6 µM [inhibitor, partial curve] |
| Cc1ccc(NC(=O)Cn2nnc(C(=O)NCc3ccc4c(c3)OCO4)c2N)cc1 | inconclusive: 3.16 µM [inhibitor, full curve] |
| O=c1c2cc3c(cc2[nH]c(=S)n1C1CCN(Cc2ccccc2)CC1)OCO3 | inactive |
| O=C(CSc1nnc(C2COc3ccccc3O2)o1)N1CCCC1 (stereo unspecified) | inconclusive: 39.8 µM [inhibitor, single point] |
| O=C(CN1CCSC1=NCc1ccccc1)c1ccc(Cl)cc1 | inconclusive: 17.8 µM [inhibitor, partial curve] |
| Cc1ccc(CSc2ncc(Cl)c(C(=O)Nc3nnc(C)s3)n2)cc1 | inconclusive: 7.94 µM [inhibitor, partial curve] |
| Oc1ccc(Cl)cc1-c1cc(-c2ccco2)[nH]n1 | inconclusive: 31.6 µM [inhibitor, partial curve] |
| CC1=C(c2ccc(F)cc2)S(=O)(=O)N=C1N1CCC(C(=O)NCCc2cccc(C)c2)CC1 | inconclusive: 35.5 µM [inhibitor, single point] |
| Cc1cc(O)c(C=Nc2cccc(Cl)c2)c(=O)o1 | inactive |
| Cn1c(=O)n(Cc2c(F)cccc2Cl)c(=O)c2c1nc1n2CCN1c1ccc(F)cc1 | inconclusive: 3.16 µM [inhibitor, partial curve] |
| Fc1ccc(-c2[nH]ncc2-c2nnnn2-c2ccccc2)c(F)c1 | inconclusive: 28.2 µM [inhibitor, partial curve] |
| Cc1cc(CNC(=O)[C@H](C)[C@@H]2C[C@@]2(C)[C@@H](NC(=O)OCc2ccccc2)c2ccccc2)nn1C | inconclusive: 25.1 µM [inhibitor, partial curve] |
| CCc1cc(C=C(Cl)Cl)oc(=O)c1C | inconclusive: 31.6 µM [inhibitor, single point] |
| CCOc1ccc(CCNC(=O)Cn2ncn3nc(-c4ccc(OC)cc4)cc3c2=O)cc1 | inactive |
| CNc1nc2sc3c(c2c(=O)n1C)CC(C)(C)SC3 | inconclusive: 17.8 µM [inhibitor, partial curve] |
| Cn1c(SCc2nnc(-c3ccccc3Br)o2)nc2sc3c(c2c1=O)CCC3 | inconclusive: 4.47 µM [inhibitor, partial curve] |
| O=C(NCc1ccccc1)c1ccc(NC(=O)N2CC3CCCN3c3ccccc32)cc1 (stereo unspecified) | inconclusive: 14.1 µM [inhibitor, partial curve] |
| Cc1ccc2occ(/C=N/NC(=O)[C@@H](N)Cc3ccccc3)c(=O)c2c1 | inactive |
| CCCn1c(C)cc(C(=O)COc2ccc(S(=O)(=O)N(CC)CC)cc2[N+](=O)[O-])c1C | inconclusive: 28.2 µM [inhibitor, single point] |

Reference: PubChem BioAssay AID485281 (National Center for Advancing Translational Sciences (NCATS), 2010)
